{
  "source": "PubChem BioAssay AID504832",
  "about": "(National Center for Advancing Translational Sciences (NCATS), 2011)",
  "note": "Among all 310,000 compounds or so, about 18,000 (5.8%) were called active. Inconclusive means that the source gave no clear call. Such entries were picked first, then a sample of the others. Calls follow the shape of the dose curve; as a rule, active = well fitted inhibition curve with a large enough effect; inconclusive = small, poorly fitted or top-dose-only effect, or another doubt; inactive = no such curve, though single readings can be large or run the other way. Potencies of inconclusive entries are left out as doubtful fits. % is scaled to controls: 0 for no effect and ±100 for the full control effect; potency is read from the fitted curve at half-maximal effect; tags tell the direction and shape of the fitted curve.",
  "data": [
    {"assay": "Primary qHTS for delayed death inhibitors of the malarial parasite plastid, 48 hour incubation", "settings": "P. falciparum luciferase growth in erythrocytes; series mostly up to 28.7 µM; activity change, negative = inhibition: at the top concentration", "in_short": "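Here the parasites carry a stable luciferase gene and grow inside erythrocytes in Albumax-based RPMI medium with compound for one erythrocytic cycle. Activity is scored as loss of luminescent signal.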", "values": [
      {"smiles": "COc1ccc2c(CC(=O)Nc3ccc(OC)c(NS(=O)(=O)c4ccc(F)cc4)c3)coc2c1", "Potency": "inconclusive [inhibitor, single point]"},
      {"smiles": "CON/C=C(\\C=Nc1ccccc1)c1ncc(C(F)(F)F)cc1Cl", "Potency": "inconclusive [inhibitor, single point]"},
      {"smiles": "COc1ccc(C)cc1NC(=O)CN1CCN(S(=O)(=O)c2ccc(Br)cc2)CC1", "Potency": "inconclusive [inhibitor, partial curve, poor fit]"},
      {"smiles": "COc1ccc(N2CCN(Cc3cc4c(cc3O)CCC4)CC2)cc1", "Potency": "active: 1.65 µM"},
      {"smiles": "O=C(NNC(=O)c1ccco1)c1cccc(Br)c1", "Potency": "inconclusive [inhibitor, single point]"},
      {"smiles": "CN(C)N1C(N)=C(C#N)C(c2cccs2)C2=C1CC(C)(C)CC2=O", "note": "(stereo not drawn)", "Potency": "inconclusive [inhibitor, partial curve, poor fit]"},
      {"smiles": "COc1cc(C2NCc3ccccc3-n3cccc32)ccc1O", "note": "(stereo not drawn)", "Potency": "active: 2.62 µM"},
      {"smiles": "CCN(CC)c1ccc2nc3c4ccccc4c(=O)cc-3oc2c1", "activity change, negative = inhibition": "inactive: 25.1%"},
      {"smiles": "CC1CCCN(S(=O)(=O)c2ccc(C(=O)NC(C)c3ccccc3)cc2)C1", "note": "(stereo not drawn)", "Potency": "inconclusive [inhibitor, single point]"},
      {"smiles": "O=C(C1CC1)N1CCN(c2ccc(O)cc2)CC1", "Potency": "inconclusive [inhibitor, single point]"},
      {"smiles": "CCNc1nc(CN2CCOCC2)nc2sc3c(c12)CCC3", "activity change, negative = inhibition": "inactive: -9.28%"},
      {"smiles": "O=C(c1sc2ccccc2c1Cl)N(Cc1ccccc1)C1CCS(=O)(=O)C1", "note": "(stereo not drawn)", "Potency": "inconclusive [inhibitor, single point]"},
      {"smiles": "CC(=O)N1CCN(c2ccc(OC[C@H]3CO[C@](Cn4ccnc4)(c4ccc(Cl)cc4Cl)O3)cc2)CC1", "Potency": "active: 5.86 µM"},
      {"smiles": "COc1ccc(S(=O)(=O)C(C#N)c2nc3ccccc3nc2N2CCCCC2)cc1", "note": "(stereo not drawn)", "Potency": "inconclusive [inhibitor, partial curve, poor fit]"},
      {"smiles": "CC(C)c1onc(C(=O)NCc2ccc(F)cc2)c1[N+](=O)[O-]", "Potency": "inconclusive [inhibitor, single point]"},
      {"smiles": "COc1ccc(C(=O)NNC(=S)NC(=O)c2cc(-c3ccccc3)nc3ccccc23)cc1", "activity change, negative = inhibition": "inactive: 6.52%"},
      {"smiles": "Cc1cc(C)c(OCC(=O)N/N=C/c2ccco2)c(C)c1", "Potency": "inconclusive [inhibitor, single point]"},
      {"smiles": "Clc1ncnc2scc(-c3ccc(Br)cc3)c12", "Potency": "active: 0.828 µM"},
      {"smiles": "O=C(COC(=O)c1ccc([N+](=O)[O-])s1)Nc1ccccc1", "activity change, negative = inhibition": "inactive: 2.13%"},
      {"smiles": "CCC(C)(C)NC(=O)C(c1ccc(OC)cc1)N(C(=O)CCC(=O)Nc1cc(C)on1)c1ccc(OC)c(OC)c1", "note": "(stereo not drawn)", "Potency": "inconclusive [inhibitor, partial curve]"},
      {"smiles": "CCCCc1nnc(NC(=O)Cc2ccc(OC)c(S(=O)(=O)N3CCOCC3)c2)s1", "Potency": "active: 10.4 µM"},
      {"smiles": "COc1ccc(Nc2cc(C(=O)NCCCN3CCN(C)CC3)c3ccccc3n2)cc1", "Potency": "inconclusive [inhibitor, partial curve]"},
      {"smiles": "CC(C)C(c1nnnn1C1CCCCC1)N1CCc2ccccc21", "note": "(stereo not drawn)", "Potency": "active: 11.7 µM"},
      {"smiles": "COCC(C)n1c(C)cc(C(=O)CSc2nc(C)c(C)c(C)n2)c1C", "note": "(stereo not drawn)", "Potency": "inconclusive [inhibitor, partial curve, poor fit]"},
      {"smiles": "Cc1ccc(NC(=O)c2ccc(NS(=O)(=O)c3c(C)noc3C)cc2)cc1C", "Potency": "inconclusive [inhibitor, partial curve, poor fit]"},
      {"smiles": "CC(=O)[C@H]1CC[C@H]2[C@@H]3CCC4=CC(=O)CC[C@]4(C)[C@H]3CC[C@]12C", "Potency": "inconclusive [inhibitor, single point]"},
      {"smiles": "O=C(O)CN1C(=O)C2C3CC(C2C1=O)C1C(c2ccc(Cl)cc2)c2sc(=O)[nH]c2SC31", "note": "(stereo not drawn)", "Potency": "inconclusive [inhibitor, single point]"},
      {"smiles": "Cc1ccsc1C(C(=O)NC1CCCCC1)N(C(=O)Cc1cccs1)C1CC1", "note": "(stereo not drawn)", "Potency": "inconclusive [inhibitor, single point]"},
      {"smiles": "CCOc1cc(/C=N/n2cnnc2)ccc1O", "activity change, negative = inhibition": "inactive: 17.4%"},
      {"smiles": "O=C(CCCNS(=O)(=O)c1cccc2nsnc12)NC1CCCCC1", "Potency": "inconclusive [inhibitor, partial curve, poor fit]"},
      {"smiles": "Oc1ccc(C(=S)N2CCCCC2)cc1Cl", "activity change, negative = inhibition": "inactive: 14%"},
      {"smiles": "O=C(NCc1ccccc1)c1ccccc1Br", "activity change, negative = inhibition": "inactive: -18.7%"},
      {"smiles": "CCOCCCNC(=O)C(c1ccccc1)N(Cc1cccs1)C(=O)c1ccccc1O", "note": "(stereo not drawn)", "Potency": "inconclusive [inhibitor, full curve, poor fit]"},
      {"smiles": "CC(=O)O/N=C1\\C(=O)N(Cc2ccc(C)cc2)c2ccccc21", "Potency": "inconclusive [inhibitor, single point]"},
      {"smiles": "Cc1cc(C)n2nc(SCc3nnc(SCCCCl)o3)nc2n1", "Potency": "inconclusive [inhibitor, partial curve, poor fit]"},
      {"smiles": "Cc1ncoc1C(=O)N1CCc2c([nH]c3ccccc23)C1C(C)(C)C", "note": "(stereo not drawn)", "Potency": "inconclusive [inhibitor, partial curve, poor fit]"},
      {"smiles": "CCO[C@@H]1OC(C(=O)N2CCCCCCC2)=C[C@H](c2cn(C(C)=O)c3ccccc23)[C@H]1CCCO", "Potency": "inconclusive [inhibitor, partial curve, poor fit]"},
      {"smiles": "Cc1cccc(/C=C2\\Sc3ccc(C(=O)N4CCC(C(N)=O)CC4)cc3N(C)C2=O)c1", "Potency": "inconclusive [inhibitor, single point]"},
      {"smiles": "CCc1ccccc1NC(=O)CN(C)C(=O)c1cccc(S(=O)(=O)N2CCCCCC2)c1", "Potency": "inconclusive [inhibitor, partial curve, poor fit]"},
      {"smiles": "C/C(=N\\NC(=O)COc1ccccc1[N+](=O)[O-])c1cccc(NC(=O)c2ccncc2)c1", "Potency": "inconclusive [inhibitor, full curve, poor fit]"},
      {"smiles": "CCCS(=O)(=O)c1nc(S(=O)(=O)c2ccc(C)cc2)c(NCCCn2ccnc2)s1", "Potency": "inconclusive [inhibitor, full curve]"},
      {"smiles": "COc1ccc(CCNC(=O)CS(=O)(=O)Cc2nc(-c3ccc(C)cc3)oc2C)cc1OC", "Potency": "inconclusive [inhibitor, single point]"},
      {"smiles": "NC(=O)CC(NC(=O)Cc1cccc2ccccc12)c1ccc(N2CCN(c3ccccn3)CC2)c([N+](=O)[O-])c1", "note": "(stereo not drawn)", "activity change, negative = inhibition": "inactive: -15.2%"},
      {"smiles": "Cn1c(=O)n(C)c2cc(NC(=O)c3ccccc3NS(C)(=O)=O)ccc21", "Potency": "inconclusive [inhibitor, partial curve, poor fit]"},
      {"smiles": "CC(=O)Oc1ccc(-c2cccc(C(=O)N(C)c3ccc(O)cc3)c2)cc1", "Potency": "inconclusive [inhibitor, partial curve, poor fit]"},
      {"smiles": "CCOc1ccccc1C1NC(=O)c2ccccc2O1", "note": "(stereo not drawn)", "Potency": "inconclusive [inhibitor, single point]"},
      {"smiles": "O=C(NCc1ccco1)C(=O)NCc1ccccc1Cl", "activity change, negative = inhibition": "inactive: 21%"},
      {"smiles": "CCOc1ccc(-n2cc(-c3ccccc3)c3c(=S)nc[nH]c32)cc1", "Potency": "inconclusive [inhibitor, partial curve, poor fit]"},
      {"smiles": "Cc1ccc(C(C(=O)NC2CCCCC2)N(C(=O)c2csnn2)c2ccccc2F)o1", "note": "(stereo not drawn)", "Potency": "inconclusive [inhibitor, single point]"},
      {"smiles": "O=C1C(NS(=O)(=O)c2ccc(Cl)cc2)=C(N2CCCCC2)C(=O)c2ccccc21", "Potency": "inconclusive [inhibitor, single point]"},
      {"smiles": "C/C(=N/OC(=O)CC(C)C)c1cc(-c2ccc(Cl)cc2)no1", "activity change, negative = inhibition": "inactive: 134%"},
      {"smiles": "N/C(=N\\OC(=O)c1cccc(Cn2cc(C(F)(F)F)ccc2=O)c1)c1ccc(Cl)cc1", "Potency": "inconclusive [inhibitor, single point]"},
      {"smiles": "CC(C)NC(=S)N/N=C/c1ccc(C(C)(C)C)cc1", "Potency": "inconclusive [inhibitor, partial curve, poor fit]"},
      {"smiles": "CC(C)c1ccc2[nH]c3nc(SCC(=O)NC4CC4)nnc3c2c1", "Potency": "inconclusive [inhibitor, partial curve, poor fit]"},
      {"smiles": "CCS(=O)(=O)N1CCN(c2ccc(C(=O)NC34CC5CC(CC(C5)C3)C4)cc2[N+](=O)[O-])CC1", "Potency": "active: 5.86 µM"},
      {"smiles": "COc1ccccc1CC(=O)Nc1nc(-c2ccc(F)c(F)c2)cs1", "Potency": "inconclusive [inhibitor, partial curve, poor fit]"},
      {"smiles": "CCN(CC(=O)NC(C)(C)C)Cc1cc(=O)n2c(-c3ccccc3)csc2n1", "Potency": "inconclusive [inhibitor, partial curve, poor fit]"},
      {"smiles": "CCn1c(=O)cc(SCC(=O)NCc2ccc(C)cc2)c2ccccc21", "activity change, negative = inhibition": "inactive: 7.85%"},
      {"smiles": "O=S(=O)(Cc1cc(Cl)nc(-c2cccnc2)n1)c1ccccc1", "Potency": "inconclusive [inhibitor, partial curve, poor fit]"},
      {"smiles": "CC(=O)N1CCN(c2ccccc2NC(=O)c2ccc(-c3cccc([N+](=O)[O-])c3)o2)CC1", "Potency": "inconclusive [inhibitor, partial curve]"},
      {"smiles": "CC[N+](C)(CC)CC(O)COCC1COc2ccccc2O1", "note": "(stereo not drawn)", "Potency": "inconclusive [inhibitor, partial curve, poor fit]"},
      {"smiles": "CC(C)CN1C(=O)/C(=C/c2c(N3CCc4ccccc4C3)nc3ccccn3c2=O)SC1=S", "Potency": "inconclusive [inhibitor, partial curve]"},
      {"smiles": "O=C(NCc1ccccc1F)c1ccc(S(=O)(=O)NCc2ccco2)cc1", "Potency": "inconclusive [inhibitor, single point]"}
    ]}
  ]
}
